# From the supplement of paper PMC3334620
# In all, about 33,000 sequences were measured (“E-score (-0.5 to 0.5)”: median about -0.04, highest 2% from about 0.36 on). The list shows a part of the results.
# Target: T1, Hmlalpha2 (UniProt P0CY09)
# T1 sequence: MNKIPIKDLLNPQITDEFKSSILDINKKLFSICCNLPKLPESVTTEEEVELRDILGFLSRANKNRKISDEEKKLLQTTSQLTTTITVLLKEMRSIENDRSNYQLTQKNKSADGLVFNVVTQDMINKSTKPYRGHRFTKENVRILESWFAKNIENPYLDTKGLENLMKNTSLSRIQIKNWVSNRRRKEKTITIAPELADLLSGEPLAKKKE
# Experiment: PBM E-score (8-mer binding enrichment) (E-score (-0.5 to 0.5)); higher = stronger / more preferred TF binding; most listed sequences are background and not binding sites
# Settings: protein concentration: 200 nM; construct: GST-full length
# Summary of the method: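 Detection of bound protein used fluorescent anti-GST, with scans normalised by masliner. The proteins were GST-tagged yeast transcription factors applied at about 100-200 nM to universal all-10-mer Agilent arrays made double-stranded by primer extension. Each ungapped eight-base word, pooled with its reverse complement, was scored with an E-score from the Universal PBM Analysis Suite.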
row,Sequence,PBM E-score
1,ACCACTCA,0.00925
2,CCGCATTC,-0.0132
3,CGCGGCCA,-0.0801
4,CATCCTCC,-0.113
5,GTAGCTTA,0.128
6,AATGGCTG,-0.118
7,AGAACTTG,0.0804
8,ACAAGAAC,0.311
9,CCGCCATC,-0.318
10,TATCTACA,0.371
11,GAGGTAAC,0.0376
12,ACGGGGCT,-0.178
13,CTAATCAG,-0.22
14,GTTGATTA,0.315
15,CAGCACAA,0.175
16,AAGCGGGA,-0.0647
17,ACAGCGGA,-0.148
18,CCAACTGC,-0.241
19,CACCGAGA,-0.219
20,AACCGCAC,0.0925
21,CTCTACAA,0.277
22,GGGTCAGA,-0.269
23,AGATACAA,0.276
24,CATCATTA,0.231
25,CACAATGG,0.0776

row,Sequence,PBM E-score
1,TTATATAA,0.285
2,AGCATATA,0.042
3,AGCGGCGG,-0.0376
4,GAGCATGC,-0.0305
5,CGCCCCAG,-0.22
6,CCTTGATC,-0.0105
7,ACATGAAG,0.338
8,ACCAGAAT,0.0511
9,ATTGCTTA,0.0327
10,ATAACGGC,-0.0332
11,CTGTCGCA,-0.059
12,ACACATCG,0.248
13,CATAAACG,0.104
14,GCCCGCCA,-0.253
15,CCACAGCG,-0.0107
16,ACCCGCAT,-0.00911
17,ATTTTGTG,0.161
18,GGCGTCAA,-0.0619
19,ATTTGCAC,0.051
20,CAGCTTAG,-0.0545
21,ATGAGGGG,-0.0697
22,CGTACATC,0.109
23,ATACTCAC,0.0554
24,GAGTAAGC,-0.118
25,GATTAGAC,-0.0255

row,Sequence,PBM E-score
1,GCACATGC,0.0131
2,GGTGCTAC,-0.177
3,AGCGGACC,-0.255
4,CCGGATTA,0.0175
5,AACTGCCG,-0.0627
6,CCGAGACG,-0.0875
7,CGCAAGAA,-0.00151
8,ATCGTATC,-0.107
9,GCAAGAAA,-0.0824
10,AATACCGG,0.0697
11,AGTCCTTG,-0.118
12,GGACGGAC,-0.412
13,GATGGCAA,-0.0428
14,TAAAGCTA,0.192
15,AGTGCCCA,-0.163
16,CGCCGCTA,-0.273
17,AACGGTCA,-0.185
18,GCAGGGCC,-0.165
19,CGACTTTC,-0.111
20,GCACAGTA,-0.0102
21,CATGGGAC,0.0132
22,CTCACTAA,-0.126
23,GCCAGATA,-0.172
24,CTAATATC,-0.0301
25,ACCATCAA,-0.00346

row,Sequence,PBM E-score
1,CCGTCAGC,-0.226
2,CCTATAGC,-0.142
3,ACGTCATA,0.094
4,AGCGCATA,0.105
5,AACTGCCA,-0.196
6,CCTTCGGA,-0.133
7,CGCTCAGA,-0.0483
8,ATCCCACG,-0.226
9,AGCATACG,-0.0437
10,CTTAGGTC,-0.22
11,ATTGTGAG,-0.0479
12,AATAGACG,-0.103
13,CCTCGCAG,-0.223
14,ACGCCAAT,0.0502
15,CCCTCATC,-0.231
16,CTGTAAAG,0.244
17,CATGCGAA,0.0661
18,CAGTCCGA,-0.0596
19,CCGTGGAG,-0.308
20,CCTGCCCA,-0.182
21,CAGGCCGG,-0.0707
22,ACGAAATA,0.171
23,GCCGTACC,-0.16
24,AAGGCGTC,-0.0484
25,TAGATACA,0.269

row,Sequence,PBM E-score
1,AACCACAG,-0.139
2,ACCATGCC,0.0244
3,GTCGAGGA,-0.211
4,CAAGAGAG,-0.0803
5,GAAATATA,0.236
6,CAGTCAGG,-0.17
7,CGCCTGTC,-0.216
8,ATCGTCAG,-0.212
9,CTACTGCA,0.0655
10,ATCACTGA,-0.0034
11,CTTCATCC,-0.306
12,AGAATCAT,0.0275
13,CTCGAGCA,-0.0482
14,ACAAGTGC,-0.0122
15,CGGCCTTA,-0.103
16,AGCGATGC,-0.151
17,GCGTGGCC,-0.12
18,ATTGGTAA,0.0204
19,AACACCCT,0.0799
20,ACAGATGA,0.0954
21,ACGGGGAA,-0.0619
22,AAACCAGA,0.0147
23,GGACTGAA,-0.0654
24,CCAGTGTC,0.0183
25,ACGGAATG,-0.0891

row,Sequence,PBM E-score
1,ACACCTAA,0.0834
2,AGCGGTTC,-0.0786
3,GCAAACTA,0.141
4,CAGAAACA,0.194
5,AATCCGAT,0.0513
6,CCTAACCG,-0.218
7,ATCTCTGA,-0.0796
8,AAACCGAC,-0.0766
9,GCTCTTCC,-0.169
10,CAAAACGG,0.113
11,ACTTGAAG,0.0783
12,ACACTGAG,-0.00329
13,CGTGCCGC,-0.0214
14,ATTCATCG,0.0389
15,TCATAAAA,-0.00506
16,AAGCCCTC,-0.138
17,CTAAATGA,-0.0333
18,CCGCGGGC,-0.255
19,ATCAAGCC,0.066
20,ACACATAC,0.36
21,AAAGTGGT,-0.157
22,GGGAATAC,0.292
23,GGTCAGTA,-0.15
24,GGATGCCA,-0.182
25,TAGCACTA,-0.0956

row,Sequence,PBM E-score
1,CCACTTGA,-0.0791
2,ACAGTCTA,0.044
3,GCTATTAC,0.247
4,ACCAACCT,-0.00445
5,ATCCCCCG,-0.227
6,CTAAACAA,0.0668
7,CGTTAATC,0.248
8,CGAGGGGA,-0.172
9,AGGTAAAT,0.24
10,CGGGGCTC,-0.354
11,GGTGATAA,-0.171
12,GAACCGAA,0.0771
13,AAATCCGG,-0.18
14,GGGAAACC,0.0275
15,ACAGCGCT,0.08
16,GGAGCAAC,-0.0607
17,CATCACCC,-0.33
18,AAGTTGAC,0.115
19,CAAAAGCA,0.122
20,AGCGAAGC,-0.0905
21,GTGAAAAC,0.056
22,CAGGAAAC,-0.00342
